According to PubChem BioAssay AID624296 (National Center for Advancing Translational Sciences (NCATS), 2012):
The whole screen tested about 350,000 compounds, of which about 9,900 (2.8%) were called active. The inconclusive results got no clear call from the source; some entries with a clear call stand among them for comparison. Calls follow the shape of the dose curve; as a rule, active = well fitted activation curve with a large enough effect; inconclusive = small, poorly fitted or top-dose-only effect; inactive = no such curve, though single readings can be large or run the other way. Potencies of inconclusive entries are left out as doubtful fits.

Assay: A quantitative high throughput screen for small molecules that induce DNA re-replication in MCF 10a normal breast cells. Also: nearly all actives have a fitted effect of over 50% in size. As to activity, positive = re-replication: % of control where 0% means no effect.
Details: MCF 10A DNA re-replication, Hoechst nuclear intensity, 48 h; activity, positive = re-replication: at 46.1 µM (top of the series)
Potency is read from the fitted curve at half-maximal effect; tags tell the direction and shape of the fitted curve.

Row | Structure (SMILES) | Potency | activity, positive = re-replication
1 | O=C(NCc1ccccc1)C(=O)Nc1nc(C23CC4CC(CC(C4)C2)C3)cs1 | inconclusive [activator, full curve, poor fit] | –
2 | O=C(NCc1ccccc1Br)c1cccc2c1C(=O)c1ccc(N3CCC(Cc4ccccc4)CC3)cc1S2(=O)=O | inconclusive [activator, partial curve, poor fit] | –
3 | CCCOC(=O)c1ccc(NC(=O)c2cccc(S(=O)(=O)N3CCN(C(C)=O)CC3)c2)cc1 | inconclusive [activator, single point] | –
4 | Cc1ccc(OCCCCN2CCC(C)CC2)cc1 | inconclusive [activator, partial curve, poor fit] | –
5 | Cc1ccc(OCCn2c(CCCO)nc3ccccc32)cc1 | inactive | –
6 | O=C(Nc1ccc(S(=O)(=O)N2CCCC2)cc1)c1ccc(CN2CCc3ccccc3C2)cc1 | inconclusive [activator, partial curve] | –
7 | Cc1ccc(CN2CCN(/N=C/c3ccc(C(F)(F)F)cc3)CC2)c(C)c1 | inconclusive [activator, single point] | –
8 | CCCCn1c(-c2ccc(Cl)c(Cl)c2)nc2cc3[nH]c(=O)c(C(C)C)nc3cc21 | active: 14.6 µM | –
9 | O=C(Cc1ccc(Cl)c(Cl)c1)NC1CCCCCC1 | inconclusive [activator, single point] | –
10 | CC(C)c1ccc(S(=O)(=O)c2ccc(NN)cc2)cc1 | inconclusive [activator, partial curve, poor fit] | –
11 | O=C(c1ccc(Cn2c(=O)[nH]c3ccccc3c2=O)cc1)N1CCN(c2ccc(Cl)cc2)CC1 | inactive | –
12 | O=C(CCSc1nc(-c2ccco2)cc(C(F)(F)F)n1)NCCc1ccccc1 | inconclusive [activator, single point] | –
13 | COc1ccc(NC(=S)N(Cc2ccc(Cl)cc2)Cc2ccc(C(=O)O)cc2)cc1Cl | inactive | –
14 | CCOC(=O)C1(CC2CC2)CCN(Cc2cc(Cl)c(O)c(OC)c2)CC1 | – | inactive: -6.06% [at 9.22 µM]
15 | CN(C)C(=O)/C(=C\c1ccncc1)NC(=O)c1ccccc1 | inconclusive [activator, partial curve, poor fit] | –
16 | COc1ccc([C@@H]2CC=C(C(=O)O)[C@H](c3ccc(F)cc3)N2S(=O)(=O)c2ccc(Cl)cc2)cc1 | inactive | –
17 | O=C(Cc1ccc(Br)cc1)Nc1ccc(S(=O)(=O)Nc2ncccn2)cc1 | inactive | –
18 | CCCn1c(NC(=O)C2COc3ccccc3O2)nc2ccccc21 (stereo not given) | inconclusive [activator, partial curve, poor fit] | –
19 | COc1ccccc1N1CCN(c2cc(=O)n(Cc3ccc(F)cc3)c(=O)[nH]2)CC1 | inconclusive [activator, single point] | –
20 | CC(=O)NS(=O)(=O)c1ccc(N=c2ssc3c2-c2cc(C)c(C)cc2NC3(C)C)cc1 | inconclusive [activator, partial curve, poor fit] | –
21 | CC(C)c1nnc(SCC(=O)Nc2ccc3c(c2)OCCO3)n1C | inactive | –
22 | COc1ccccc1-c1oc2ccccc2c1C#CC1(N)CCCCC1 | inconclusive [activator, single point] | –

Row | Structure (SMILES) | Potency | activity, positive = re-replication
23 | Cc1cccc(-n2c(SCC(=O)NCc3ccco3)nc3ccccc3c2=O)c1 | inconclusive [activator, partial curve] | –
24 | O=C1c2cc([N+](=O)[O-])cc3cc([N+](=O)[O-])cc(c23)C(=O)N1c1ccccn1 | inconclusive [activator, single point] | –
25 | O=C(CCl)NNc1nc(-c2ccccc2)c2cc(Cl)ccc2n1 | inactive | –
26 | CC(=O)Nc1ccc(NC(=O)CSc2ccc3nnc(CCNS(=O)(=O)c4ccc(C)cc4)n3n2)cc1 | inactive | –
27 | N#Cc1nc(-c2ccc(OCc3ccccc3)cc2)oc1NCCCN1CCOCC1 | inconclusive [activator, partial curve] | –
28 | COc1ccc(NS(=O)(=O)c2cccc(C(=O)NCC(c3ccco3)N(C)C)c2)cc1 (stereo not given) | inactive | –
29 | CCOc1ccccc1N(C)C(=O)c1sc2ncn(CC(=O)N3CCCCC3C)c(=O)c2c1C (stereo not given) | inactive | –
30 | CCc1nc2sc3c(c2c(=S)[nH]1)CC(C)(C)OC3 | inactive | –
31 | CN1C(=O)/C(=C/c2cc(C(C)(C)C)c(O)c(C(C)(C)C)c2)NC1=S | inactive | –
32 | COc1ccccc1C1CC(=O)Oc2cc(C)c(Cl)c(C)c21 (stereo not given) | inconclusive [activator, single point] | –
33 | CCN(CC(=O)NC(C)C)C(=O)[C@@H](NC(=O)c1ccco1)C(C)C | inactive | –
34 | O=C(NCc1ccc2c(c1)OCO2)c1ccc(CSCc2cccc(Cl)c2)o1 | inactive | –
35 | Cc1ccccc1-c1cc2c(nn1)-c1ccccc1C2=O | inconclusive [activator, single point] | –
36 | O=C(Nc1ccn(Cc2c(F)c(F)cc(F)c2F)n1)c1ccc(COc2ccc(Cl)cc2Cl)o1 | inactive | –
37 | O=C(O)CCCC(=O)Nc1ccc(OCc2nc3ccccc3s2)cc1 | inactive | –
38 | COc1cc(C(C(=O)NC2CCCC2)N(Cc2ccco2)C(=O)c2snc(C(N)=O)c2N)cc(OC)c1OC (stereo not given) | inactive | –
39 | Cn1nc(C(=O)NNC(=O)CCc2ccccc2Cl)c2ccccc2c1=O | inactive | –
40 | COc1ccc(C(=O)Nc2ccc(C(=O)Nc3nccs3)cc2)cc1[N+](=O)[O-] | inactive | –
41 | C/C(=N/NC(=O)c1ccco1)c1ccc(NC(=O)c2ccc(F)cc2)cc1 | inconclusive [activator, single point] | –
42 | COc1ccc(C(=O)Nc2ccccc2Cc2ccccc2)c(OC)c1 | inconclusive [activator, partial curve, poor fit] | –
43 | Cc1cc(Nc2nc3ccccc3[nH]c2=O)n(-c2ccccc2)n1 | inconclusive [activator, partial curve, poor fit] | –
44 | CN(c1ccccc1)S(=O)(=O)c1ccc(C(=O)NCc2ccccc2CN2CCCC2)cc1 | inconclusive [activator, partial curve, poor fit] | –

Row | Structure (SMILES) | Potency | activity, positive = re-replication
45 | CN1C(C(=O)NCc2ccco2)CC2Cn3c(nc4cc(Cl)c(Cl)cc43)C21 (stereo not given) | inconclusive [activator, single point] | –
46 | COc1ccc(Cn2c(CCC(=O)NCCC(C)C)nc3ncccc3c2=O)cc1 | inconclusive [activator, single point] | –
47 | O=C(c1ccccn1)N1N=C2/C(=C/c3ccc(F)cc3)CCCC2C1c1ccc(F)cc1 (stereo not given) | inconclusive [activator, single point] | –
48 | Cc1ccc(NC(=O)COC(=O)/C(=C/c2cccs2)c2cccs2)cc1S(=O)(=O)N(C)C | inconclusive [activator, partial curve, poor fit] | –
49 | CN(CC(=O)NC1CC(C)(C)NC(C)(C)C1)S(=O)(=O)c1cc(Cl)ccc1Cl | inconclusive [activator, partial curve, poor fit] | –
50 | CCc1ccc(NCc2cc3c(C)nn(-c4ccccc4)c3[nH]c2=O)cc1 | inconclusive [activator, partial curve, poor fit] | –
51 | CCOc1ccccc1-c1cc(C(=O)N/N=C/c2ccc(O)c(OC)c2)c2ccccc2n1 | inconclusive [activator, single point] | –
52 | Cc1cc(F)ccc1NCc1ccc([N+](=O)[O-])cc1 | inconclusive [activator, single point] | –
53 | CCCN(C(=O)/C=C/c1ccco1)c1c(N)n(Cc2ccccc2)c(=O)[nH]c1=O | inconclusive [activator, partial curve, poor fit] | –
54 | O=C(N[C@@H](Cc1ccccc1)C(=O)OCc1ccccc1)c1nc[nH]c1C(=O)N1CCc2ccccc2C1 | inconclusive [activator, single point] | –
55 | CCCCCC(=O)Nc1cccc(C2=NOC3(C2)C[C@@H](C(N)=O)N(C(=O)CC(c2ccccc2)c2ccccc2)C3)c1 (stereo not given in full) | inconclusive [activator, partial curve, poor fit] | –
56 | CCOc1ccc(NC(=O)CCCn2nc(C)c3c(C)n(-c4ccccc4)nc3c2=O)cc1 | inconclusive [activator, single point] | –
57 | CC1Cc2c([nH]c3ccccc23)C2c3ccccc3CN12 (stereo not given) | inconclusive [activator, single point] | –
58 | COc1ccc(-c2c(C)nn(Cc3ccccc3)c2N)cc1 | inactive | –
59 | CC(C)Oc1cccc(-c2cc(C(=O)NC(=S)N(C)c3ccccc3C(=O)O)c3ccccc3n2)c1 | inconclusive [activator, single point] | –
60 | Cc1ccc(C#N)c(SCC(=O)Nc2nccs2)n1 | inconclusive [activator, single point] | –
61 | CCCCn1nc(C(=O)N(CC(C)C)c2c(N)n(CCCC)c(=O)[nH]c2=O)c2ccccc2c1=O | inactive | –
62 | Cc1ccc(-c2nc(C)sc2CC(=O)OCC(=O)Nc2cccc([N+](=O)[O-])c2)cc1 | inactive | –
63 | Cc1nn(Cc2ccccc2)c(Cl)c1/C=N/NC(=O)c1cccnc1 | inconclusive [activator, partial curve, poor fit] | –
64 | O=S(=O)(NCC(c1cccs1)N1CCc2ccccc2C1)c1ccccc1 (stereo not given) | inconclusive [activator, partial curve, poor fit] | –
65 | COc1cccc(-c2nc(C(=O)NCCCN3CCOCC3)cc3c2[nH]c2ccccc23)c1 | inconclusive [activator, single point] | –
